Measurements as given in the supplement of paper PMC10338343.
± gives the standard deviation. The full ranking holds about 6,600 sequences; the median of “pre-steady-state target cleavage rate” is about 0.07, and the highest 2% start at about 0.72. The entries are a selection whose mix differs from that of the whole data set.

system: MIWI (PIWIL1) piRISC loaded with Kctd7 piRNA (30 nt); assay: pre-steady-state target cleavage rate (min^-1); MIWI and MILI are mouse PIWI proteins and EfPiwi is from a freshwater sponge; tags in brackets are library labels; higher = faster piRNA-guided slicing of the target; conditions: guide: Kctd7 piRNA 5'p-UGUUAAUCUCUCAGAGAAGGUGACAGUGAU; auxiliary factor: 500 nM mouse GTSF1
Procedure, shortened: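 Sequencing of uncleaved targets, normalised to depth and to weakly complementary targets, was the readout of this Cleave-'n-Seq assay. A transcribed, DNA-blocked target RNA library (0.1 nM) was mixed with 1 nM active affinity-purified piRISC carrying one synthetic guide, with or without 500 nM GTSF1 partner protein, in HEPES–potassium acetate buffer at 33 °C for 0–8 or 0–960 min. Three trials were pooled, k3 was capped at 0.0001 min^-1, and a burst-and-steady-state fit gave the pre-steady-state cleavage rate.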

Sequence	pre-steady-state target cleavage rate
UACACUGUCACCAUCUCUGAGUGAUUAACA	0.0178 ± 0.0035
UUCACUGUCACCUAGACUGAGAGAUUAACA	0.04 ± 0.0094
UAGUGUGUCACCUUCUCUGAGACGAUUAACA	0.0199 ± 0.0093
UAGUGUGUCACCUUCUCAGAGAGAUUAUGA	0.0716 ± 0.02
UAGUGACAGACCUUCUCUGCGAGAUUAACA	0.0382 ± 0.0066
UAGUGUGUCACCUUCUCUGAGUCUUUUUGA	0.0618 ± 0.021
UAGACUGUGACCUUCUCUGAGAGAUUAUCA	0.246 ± 0.033
UAGUGAGUCACCUUCUCUGAGAGAUUCACA	0.0972 ± 0.026
UAGUGUGUCACCUUCUGUGAGACAUUAACA	0.0178 ± 0.0067
UUCUGUGUCACCUUCUCUGAGAGAUUAAGA	0.16 ± 0.026
UAGUGACUCUCCUUCUCUGAGAGAUUAUCA	0.0494 ± 0.0084
UACACUGUCACCUUCUCUGUGAGAUAAACA	0.103 ± 0.012
UAGUGAGACACGUUCUCUGAGAGAUUAACA	0.379 ± 0.026
UAGUGACACUCCUUCUCUGAGAGAUUAACA	0.329 ± 0.026
UAGUGUCAGACCUUCUCUGAGAGAUUAAGA	0.0434 ± 0.012
UAGUGAGUCAUCCUUCUCUGAGAGAUUAACA	0.132 ± 0.012
UAGUCUGUCUCCUUCUCUGAGACAUUAACA	0.0287 ± 0.0064
UACACUGUCACCUUCUCUGAGAGCAUUAACA	0.343 ± 0.032
UACACUGUCACCUUCUCUCAGAGAUAAACA	0.0525 ± 0.011
UAGUGACUCACCUUCUCUGACAGAUUAUCA	0.087 ± 0.015
UAGUGUGUCAGCUUCUCUGACAGAUUAACA	0.174 ± 0.028
UACUGUGUCACCUUCUCUGAGAGAUUAACA	0.63 ± 0.027
UACACUGUCACCAUCUCUGAGAGAUAUUGA	0.00944 ± 0.0048

Sequence	pre-steady-state target cleavage rate
UAGUGACUGACGUUCUCUGAGAGAUUAACA	0.0452 ± 0.0081
UAGUGACAGACCUUCUCUGAGAGAUUCACA	0.0961 ± 0.022
UUCACUGUCAACCUUCUCUGAGAGAUUAACA	0.271 ± 0.019
UAGUGACUCAGCUUCACUGAGAGAUUAACA	0.158 ± 0.025
AUCUCUGUCACCUUCUCUGAGAGUUUAACA	0.711 ± 0.12
UAGUGUGUCACCAUCUCUGAGAGAUUAAGA	0.0632 ± 0.015
UAGUCUGUCACCUUCUCUGACAGAAUAACA	0.0183 ± 0.0055
UAGUCUGUCUCCUUCUCUGAGAGAUUUACA	0.199 ± 0.029
UAGUCUCUCACCUUCUCUGAGUGAUUAACA	0.0299 ± 0.0065
AUCUCUGUCACCUUCUCUGAGAGAUUAAGA	0.119 ± 0.021
UAGUGACACACCUUCUCUGUGAGAAUAACA	0.0281 ± 0.0073
AACACUGUCACCUUCUCUGAGUGAUUAACA	0.0448 ± 0.0074
UAGACUGUCACCUUCUCUGAGAGAUUUACA	0.369 ± 0.049
UUCUCUGUCACCUUCUCUGAGACAUUAACA	0.29 ± 0.024
UAGUCUGUCACGUUCUCUCAGAGAUUAACA	0.0637 ± 0.0058
UUCACUGACACCUUCUCUGAGAGAUUAUGA	0.185 ± 0.043
UAGUGACUCACCUUCUCUGAGAGAAAAACA	0.136 ± 0.03
UAGUGACACACAUUCUCUGAGAGAUUAACA	0.177 ± 0.018
UAGUGACUGACCUUCUCUCAGAGAUUAACA	0.0111 ± 0.005
UAGUGACAGACCUUCUCUGAGAGAUUUACA	0.0894 ± 0.014
UAGUGACUGACCUUCUCUGAGAGUUUAACA	0.0982 ± 0.018
UAGUGACAGUCCUUCGCUGAGAGAUUAACA	0.00917 ± 0.0021
UAGACUGUCACCUUAUCUGAGAGAUUAACA	0.651 ± 0.038

Sequence	pre-steady-state target cleavage rate
UUGACUGUCACCUUCUCUCAGAGAUUAACA	0.0999 ± 0.0057
AUCACUGUCACCUACUCUGACAGAUUAACA	0.208 ± 0.021
AUCACUGUCUCCUACUCUGAGAGAUUAACA	0.622 ± 0.038
UUCACUGUCACCUUCUGUGAGAGAUUUACA	0.166 ± 0.025
UUCACUGUCACCUUCUCUGAGAGAUUAAA	0.243 ± 0.032
AUCACUGUCACCUUCUCUGAGAGUAAAAGA	0.0962 ± 0.028
UACACUGAGUCCUUCUCUGAGAGAUAUUGA	0.0106 ± 0.0041
UAGUGACAGUGCUUCUCUGAGAGAUUAAAA	0.00713 ± 0.0029
UAGUGAGACACCUUCUCUGAGAGAUUAACA	0.497 ± 0.027
UAGUGACAGUGCUUCUCUGAGAGAUCAACA	0.00952 ± 0.0016
UAGUGACAGUGGUUCCUCUGAGAGAUUAACA	< 0.0001
UAGUGACAGACCUUCUCUGAGAGUUUAACA	0.066 ± 0.013
UAGUGACAGAACCUUCUCUGAGAGAUUAACA	0.204 ± 0.018
UACACUGUCACCUUCUCUCAGAGAUUAUGA	0.0194 ± 0.011
UAGUGUGUGUCCUUCUCUGAGAGAUUAAGA	0.0367 ± 0.0083
UACACUGUCACCUUCUCUGAGAGAUUAACCA	0.629 ± 0.053
UAGACUCUCUCCUUCUCUGAGAGAUUAACA	0.302 ± 0.02
UAGUGUGUCAGGUUCUCUGAGAGAUUAUGA	0.00941 ± 0.0032
UACACUGUCACCUUCUCUGAAGAUUAACA	0.0277 ± 0.01
UAGACUGUCACCUUCGUCUGAGAGAUUAACA	0.0773 ± 0.018
AUCACUGACACGUUCUCUGAGAGAUUAACA	0.601 ± 0.03
UACACUGUCACCAUCUCUGAGAGAUUAAGA	0.0844 ± 0.017
UAGUGUGUCACCUUCUCUGAGAGAUUUAACA	0.477 ± 0.061

Sequence	pre-steady-state target cleavage rate
UAGUCUGUCACUUUCUCUGAGAGAUUAACA	0.642 ± 0.023
UAGUGACUCACCUUCUCUGAGAGAAUUAACA	0.242 ± 0.035
UAGACUGUCACCUUCUCUGAGUAGAUUAACA	0.00464 ± 0.0024
UUCACAGUCACCUUCUCUGAGACAUUAACA	0.242 ± 0.022
UAGUGACACACCUUCUCUGAGAGAAUAAGA	0.0102 ± 0.0058
UAGACUCUCACGUUCUCUGAGAGAUUAACA	0.351 ± 0.022
UAGUGUGUCACCUUCUCUGAGAGUAUAACA	0.24 ± 0.052
UAGUGAGUCACCUUCACUGAGAGAUAAACA	0.125 ± 0.02
UAGACUGACACCUUCUCUGAGAGAUUAACA	0.62 ± 0.035
UAGUGAGAGACCUUCUCUGAGAGAUUAACA	0.2 ± 0.016
UACACUGUAACCUUCUCUGAGAGAUUAACA	0.545 ± 0.032
AUCACUGUCACCAUCUCUGAGAGAUUUUGA	0.071 ± 0.023
UAGUGAGUCACGAACUCUGAGAGAUUAACA	0.0474 ± 0.0069
AUCACUGUCACCUUCACUGAGAGAUUUACA	0.511 ± 0.082
UUCAGUGUCACCUUCACUGAGAGAUUAACA	0.38 ± 0.03
UAGUGACAGACGUUCUCUGAGAGAUUUACA	0.00697 ± 0.0028
UAGUCUGUCACCAUCUCUGAGAGAUUUACA	0.256 ± 0.032
UACACUGUCACCUUCUCUGAGUGAUUAUCA	0.0214 ± 0.006
UAGUGAAUCACCUUCUCUGAGAGAUUAACA	0.538 ± 0.051
UUGACUGUCACCUUCUCUGAGAGAUUUACA	0.394 ± 0.041
UAGUGAGUCAGCUUCUCUGAGACAUUAACA	0.0722 ± 0.011
UAGUGAGUCACCUUCUGAGAGAGAUUAUGA	0.00502 ± 0.0047
UUCACUGUCACUUCUCUGAGAGAUUAACA	0.54 ± 0.046
